Source: patent publication US20190256592A1
These are yes or no findings as the source states them, for the method shown. Some entries that bind do so weakly or less than the wild type.

Key:
[1] = biological target: T1, …; experiment: ELISA: biotinylated CLPTM1 peptide on streptavidin plate, GDF15 at 100 ng/ml, detected with goat anti-GDF15 and anti-goat-HRP
T1 sequence (peptide, biotinylated; C-terminal glycine not from CLPTM1): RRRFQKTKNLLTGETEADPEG

[2] = biological target: T2, …; experiment: as above; remark: listed apart in the source
T2 sequence (peptide, biotinylated; C-terminal glycine not from CLPTM1): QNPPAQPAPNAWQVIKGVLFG

[3] = biological target: T3, …; experiment: as above; remark: listed apart in the source
T3 sequence (peptide, biotinylated; C-terminal glycine not from CLPTM1): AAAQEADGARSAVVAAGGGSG

[4] = biological target: T4, …; experiment: as above; remark: listed apart in the source
T4 sequence (peptide, biotinylated; C-terminal glycine not from CLPTM1): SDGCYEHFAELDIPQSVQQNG

[5] = biological target: T5, …; experiment: as above; remark: listed apart in the source
T5 sequence (peptide, biotinylated; C-terminal glycine not from CLPTM1): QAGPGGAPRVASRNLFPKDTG

[6] = biological target: T6, …; experiment: as above; remark: listed apart in the source
T6 sequence (peptide, biotinylated; C-terminal glycine not from CLPTM1): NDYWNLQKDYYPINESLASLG

[7] = biological target: T7, …; experiment: as above; remark: listed apart in the source
T7 sequence (peptide, biotinylated; C-terminal glycine not from CLPTM1): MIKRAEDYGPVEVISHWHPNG

[8] = biological target: T8, …; experiment: as above; remark: listed apart in the source
T8 sequence (peptide, biotinylated; C-terminal glycine not from CLPTM1): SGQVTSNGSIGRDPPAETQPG

[9] = biological target: T9, …; experiment: as above; remark: listed apart in the source
T9 sequence (peptide, biotinylated; C-terminal glycine not from CLPTM1): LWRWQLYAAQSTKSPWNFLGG

[10] = biological target: T10, …; experiment: as above; remark: listed apart in the source
T10 sequence (peptide, biotinylated; C-terminal glycine not from CLPTM1): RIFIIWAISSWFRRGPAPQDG

[11] = biological target: T11, …; experiment: as above; remark: listed apart in the source
T11 sequence (peptide, biotinylated; C-terminal glycine not from CLPTM1): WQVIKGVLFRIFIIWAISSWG

[12] = biological target: T12, …; experiment: as above; remark: listed apart in the source
T12 sequence (peptide, biotinylated; C-terminal glycine not from CLPTM1): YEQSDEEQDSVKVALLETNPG

[13] = biological target: T13, …; experiment: as above; remark: listed apart in the source
T13 sequence (peptide, biotinylated; C-terminal glycine not from CLPTM1): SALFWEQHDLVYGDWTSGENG

[14] = biological target: T14, CLPTM1 peptide G20 (residues 292-311 with C-terminal glycine) (human); experiment: ELISA; biotinylated peptide on streptavidin plate, GDF15 at 100 ng/ml, OD 450-620
T14 sequence (peptide, biotinylated (position not stated)): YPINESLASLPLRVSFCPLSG

[15] = biological target: T15, CLPTM1 peptide G13 (residues 242-261 with C-terminal glycine) (human); experiment: as above
T15 sequence (peptide, biotinylated (position not stated)): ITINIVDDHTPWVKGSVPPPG

[16] = biological target: T16, CLPTM1 peptide G14 (residues 262-281 with C-terminal glycine) (human); experiment: as above
T16 sequence (peptide, biotinylated (position not stated)): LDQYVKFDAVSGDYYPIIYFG

[17] = biological target: T17, CLPTM1 peptide G10 (residues 182-201 with C-terminal glycine) (human); experiment: as above
T17 sequence (peptide, biotinylated (position not stated)): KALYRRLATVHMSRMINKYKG

[18] = biological target: T18, CLPTM1 peptide G9 (residues 162-181 with C-terminal glycine) (human); experiment: as above
T18 sequence (peptide, biotinylated (position not stated)): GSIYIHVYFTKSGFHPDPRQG

[19] = biological target: T19, CLPTM1 peptide G21 (residues 273-292 with C-terminal glycine) (human); experiment: as above
T19 sequence (peptide, biotinylated (position not stated)): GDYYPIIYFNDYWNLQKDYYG

binding [1]: no binding (tested: 100 ng/ml) | binding [2]: no binding (tested: 100 ng/ml) | binding [3]: no binding (tested: 100 ng/ml) | binding [4]: no binding (tested: 100 ng/ml) | binding [5]: no binding (tested: 100 ng/ml) | binding [6]: no binding (tested: 100 ng/ml) | binding [7]: no binding (tested: 100 ng/ml) | binding [8]: no binding (tested: 100 ng/ml) | binding [9]: no binding (tested: 100 ng/ml) | binding [10]: no binding (tested: 100 ng/ml) | binding [11]: no binding (tested: 100 ng/ml) | binding [12]: no binding (tested: 100 ng/ml) | binding [13]: no binding (tested: 100 ng/ml) | binding [14]: binds | binding [15]: binds | binding [16]: binds | binding [17]: binds | binding [18]: binds | binding [19]: binds
B1: Growth and Differentiation Factor 15 (GDF15) (ligand, UniProt Q99988 197-308, looked up)
chain: ARNGDHCPLGPGRCCRLHTVRASLEDLGWADWVLSPREVQVTMCIGACPSQFRAANMHAQIKTSLHRLKPDTVPAPCCVPASYNPMVLIQKTDTGVSLQTYDDLLAKDCHCI
